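Five compound concentrations were applied to cells in 96-well plates for 48 hours; endpoints were derived by simple linear interpolation of the resulting dose-response curve. At the GI50, growth is halved. At the TGI there is no net growth.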
The molecules below were run on NCI-H322M lung (assay: NCI tumour cell line growth inhibition, 48 h).
In the case of CCN(CC)CCOc1ccc(C(=C(C)c2ccccc2)c2ccc(OCCN(CC)CC)cc2)cc1, the GI50 is reported as 4.46 µM and the TGI is reported as 12.2 µM.
O=C(c1ccc(O)cc1)C1[C@H](c2ccc(Br)cc2)[C@@H](c2ccccc2)NC12C(=O)Nc1ccccc12 (stereo partly drawn) was tested, and the GI50 was 5.26 µM and the TGI was 10.4 µM.
For C#CCN(C)CCCOc1ccc(N(C)C(=O)c2cc(C(C)C)c(O)cc2O)cc1Cl, the GI50 was 0.737 µM and the TGI was 19.1 µM.
COc1cncc(-c2ccc3ncnc(N4CCc5ccc(Cl)cc54)c3c2)c1 showed a GI50 of 1.85 µM and a TGI of 10 µM.

Source: PubChem BioAssay (NCI)
